Test results: PubChem BioAssay (NCATS)
Inconclusive results, whose numbers are uncertain, are shown with a selection of clear calls. For some assays here: Potencies of inconclusive entries are left out as doubtful fits. For some assays here: A note “side channel” means that the fit belongs to a control or component signal, not to the main read-out. The source made the active and inactive calls. Unless noted, calls come from the whole dose curve; as a rule, active = well fitted curve in the direction sought with a large enough effect; inconclusive = small, poorly fitted or top-dose-only effect, or another doubt; inactive = no such curve, though single readings can be large; an effect the other way counts as inactive or inconclusive.

Assays:
[1] = Cell Viability - Jurkat (AID 426;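 active = dose-dependent loss of cell ATP signal giving a full or clear fitted curve, ranked by lower potency value; inconclusive = weak partial curve or response only at the top dose; inactive = no loss of viability signal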; note: potency is the fitted concentration of half-maximal effect); conditions: qHTS
Procedure, shortened: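 Seed 5000 Jurkat E6-1 cells/well; add compound; incubate 40 hr at 37 °C; add CellTiter-Glo; wait 20 min at room temperature; read luminescence. Fit concentration-response with Hill equation for AC50.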

[2] = Cell Viability - Hek293 (AID 427;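 active = compounds whose dose-response curve shows a full or clear partial loss of cell viability, called from curve shape rather than a numeric limit; inconclusive = weak partial curves or an effect only at the top dose; inactive = no dose-dependent loss of viability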;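 note: potency is the fitted concentration of half-maximal effect; cells exposed to compound for 40 hours at 37 °C before reading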); conditions: qHTS
Procedure, shortened: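 HEK293 cells in complete medium were exposed to compound for 40 hr at 37 °C, then cellular ATP was read by CellTiter-Glo luminescence. Data were normalized to DMSO (basal) and 100 uM tamoxifen (100% inhibition), and AC50 came from Hill fits.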

[3] = Cell Viability - NIH 3T3 (AID 541); conditions: NIH 3T3 cell viability, qHTS; activity change, negative = cytotoxicity: at 92.2 µM (top of the series);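 note: plate controls were DMSO alone for no effect and tamoxifen positive control for full effect; nearly all actives have a fitted effect of over 25% in size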
Procedure, shortened: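 AC50 values reflect concentration-dependent loss of intracellular ATP in NIH 3T3 cells after 40 hr treatment in complete culture medium, quantified by luciferase-based luminescence.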

[4] = Cell Viability - Renal Proximal Tubule (AID 545); conditions: renal proximal tubule cells viability, primary cells of rat origin; activity change, negative = cytotoxicity: at 91.7 µM (top of the series); note: nearly all actives have a fitted effect of over 40% in size
Procedure, shortened: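 Viability taken as intracellular ATP (CellTiter-Glo luminescence) after 40 hr, 37 °C compound treatment of primary proximal tubule cells from rat kidney, 1000 cells/well; Hill-equation fits of qHTS concentration-response data gave AC50.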

[5] = Cellular Toxicity (caspase-3) MRC-5 (AID 659); conditions: Potency: caspase-3 activation; note: potency is the fitted concentration of half-maximal effect
Procedure, shortened: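 MRC-5 human normal lung fibroblasts, 1500 cells/well, treated 16 h at 37 °C in complete medium. Caspase 3/7 measured by Caspase-Glo luminescence after 1 h at room temperature. Normalized to DMSO and 10 uM staurosporine; AC50 from Hill fit.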

[6] = Cellular Toxicity (caspase-3) Hek293 (AID 664); conditions: HEK293 caspase-3 activation, DMSO = 0%, 100 µM tamoxifen = 100%; at 92.2 µM (top of the series);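 note: cells exposed to compound for 16 h at 37 °C before readout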
Procedure, shortened: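 Activation of caspase-3/7 is measured as increased luminescence from cleaved peptide-aminoluciferin substrate in HEK293 cells treated 16 hours at 37 °C. AC50 values come from Hill-equation fits of concentration-response data.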

[7] = molecular target: Cytochrome P450 3A4 (Homo sapiens) (UniProt P08684); experiment: qHTS Assay for Inhibitors and Substrates of Cytochrome P450 3A4 (AID 884); note: % is set by controls: 0 for no effect and ±100 for the full control effect; nearly all actives have a fitted effect of over 50% in size
Sequence of UniProt P08684 (P08684 whole entry, looked up): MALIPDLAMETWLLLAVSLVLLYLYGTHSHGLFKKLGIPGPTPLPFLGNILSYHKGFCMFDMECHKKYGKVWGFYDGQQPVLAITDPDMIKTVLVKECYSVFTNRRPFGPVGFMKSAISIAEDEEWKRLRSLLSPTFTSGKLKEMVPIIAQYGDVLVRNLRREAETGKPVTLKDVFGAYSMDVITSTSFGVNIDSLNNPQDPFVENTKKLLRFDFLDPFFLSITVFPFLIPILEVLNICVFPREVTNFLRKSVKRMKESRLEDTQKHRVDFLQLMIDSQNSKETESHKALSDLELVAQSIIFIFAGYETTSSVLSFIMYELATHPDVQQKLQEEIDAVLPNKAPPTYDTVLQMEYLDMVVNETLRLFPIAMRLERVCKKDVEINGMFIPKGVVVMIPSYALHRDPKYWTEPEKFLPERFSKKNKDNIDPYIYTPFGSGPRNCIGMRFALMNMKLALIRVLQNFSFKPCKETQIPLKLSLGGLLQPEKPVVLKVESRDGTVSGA
Procedure, shortened: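 20 nM human CYP3A4 with 25 uM Luciferin-PPXE (at KM) in 200 mM KPO4, preincubated 10 min with compound; NADPH regeneration started a 60 min RT reaction. Luciferin detected by luminescence, normalized to 57 uM ketoconazole as full inhibition.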

[8] = qHTS Assay for Identification of Small Molecule Inducers of Hypoxia Response (AID 2120; active = well fitted curve in the direction sought with a large enough effect in the signal ratio, with a control signal flat, not every such curve was filed as active; inconclusive = small, poorly fitted or top-dose-only effect, or a change in a side signal; inactive = no such curve, though single readings can be large or run the other way; the % refers to the signal ratio; note: potency is the fitted concentration of half-maximal effect); conditions: hypoxia response reporter cells, beta-lactamase ratio readout; activation: at 104 µM (top of the series)
Procedure, shortened: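 Induction of beta-lactamase reporter activity was measured in CellSensor HRE-bla ME-180 cells after 17 h compound treatment at 37 degrees C, using CCF4 substrate and the 460nm/530nm emission ratio to derive AC50 values.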

[9] = qHTS assay for small molecule agonists of the antioxidant response element (ARE) signaling pathway (AID 651741; active = well fitted activation curve with a large enough effect in the signal ratio; inconclusive = small, poorly fitted or top-dose-only effect, or effect the other way, or a change in a side signal; the % refers to the signal ratio; note: potency is the fitted concentration of half-maximal effect); conditions: HepG2 ARE-bla reporter, beta-lactamase FRET ratio, 16 h; activation: at 96 µM (top of the series) unless noted
Procedure, shortened: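 HepG2 ARE-bla cells plated at 2,000 cells/well and incubated 5 h at 37 C/5% CO2 received 23 nL compound in DMSO. After 16 h at 37 C, LiveBLAzer B/G FRET substrate was applied for 2 h at room temperature and fluorescence read.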

[10] = qHTS assay to identify small molecules that stimulate interleukin-8 (IL-8) secretion (AID 651758; active = well fitted activation curve with a large enough effect in the signal ratio; inconclusive = small, poorly fitted or top-dose-only effect, or effect the other way, or a change in a side signal; the % refers to the signal ratio; note: 0% is about no effect); conditions: HTRF ratio (665/615); activation: at 92.2 µM (top of the series)
Procedure, shortened: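 THP-1 cells (2000/well) exposed to compound 16 h at 37 C; secreted IL-8 then detected by HTRF with cryptate- and XL665-labelled anti-IL-8 antibody pair after 1-3 h at room temperature.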

[11] = molecular target: Nuclear receptor ROR-gamma (Homo sapiens) (UniProt P51449); experiment: qHTS assay for small molecule antagonists of the retinoid-related orphan receptor gamma (ROR-gamma) signaling pathway (AID 651802); note: potency is the fitted concentration of half-maximal effect; nearly all actives have a fitted effect of over 60% in size
Sequence of UniProt P51449 (P51449 whole entry, looked up): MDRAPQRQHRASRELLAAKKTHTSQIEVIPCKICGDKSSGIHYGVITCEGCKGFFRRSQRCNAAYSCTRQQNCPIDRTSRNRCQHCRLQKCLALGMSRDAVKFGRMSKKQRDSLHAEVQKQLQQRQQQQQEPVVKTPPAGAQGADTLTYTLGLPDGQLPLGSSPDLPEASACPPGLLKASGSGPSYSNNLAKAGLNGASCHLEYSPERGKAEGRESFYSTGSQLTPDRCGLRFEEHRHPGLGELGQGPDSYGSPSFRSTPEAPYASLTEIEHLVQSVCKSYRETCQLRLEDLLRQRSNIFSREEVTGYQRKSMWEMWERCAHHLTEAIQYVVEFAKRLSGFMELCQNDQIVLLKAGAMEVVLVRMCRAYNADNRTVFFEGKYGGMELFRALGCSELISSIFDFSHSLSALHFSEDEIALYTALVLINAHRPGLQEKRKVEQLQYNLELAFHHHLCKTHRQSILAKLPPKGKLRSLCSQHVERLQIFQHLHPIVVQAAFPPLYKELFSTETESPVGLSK
Procedure, shortened: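 Antagonism is scored as a fall in luminescence from a RORE-luciferase reporter in CHO cells expressing ROR under a TET-inducible promoter, measured 16hr after doxycycline induction in the presence of compound.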

[12] = qHTS assay for small molecule agonists of the antioxidant response element (ARE) signaling pathway measured by Nrf2-dependant transcriptional activity (AID 720636; active = well fitted curve in the direction sought with a large enough effect in the repeat runs; inconclusive = weak or mixed curves; inactive = no such curve, though single readings can be large; an effect the other way counts as inactive or inconclusive; note: potency is the fitted concentration of half-maximal effect)
Procedure, shortened: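 Attachment 6 hr at 37 C, then compound versus DMSO vehicle for 16 hr in ARE-luc HepG2 cells (1% dialyzed FBS); luminescence recorded 30 min after ONE-Glo addition at room temperature.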

[13] = qHTS assay for small molecule antagonists of the retinoid-related orphan receptor gamma (ROR-gamma) signaling pathway - cell viability counter screen (AID 720652; active = well fitted curve in the direction sought with a large enough effect in the repeat runs; inconclusive = weak or mixed curves; inactive = no such curve, though single readings can be large; an effect the other way counts as inactive or inconclusive;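 note: potency is the fitted concentration of half-maximal effect; compound exposure lasted 16 hr before ATP read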)
Procedure, shortened: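 Cytotoxicity is quantified via intracellular ATP (CellTiter-Glo luminescence) in doxycycline-induced CHO ROR response element-luciferase reporter cells treated with compound for 16 hr at 37 C, 5% CO2.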

[14] = molecular target: Lysosomal alpha-glucosidase (Homo sapiens) (UniProt P10253); experiment: Confirmation of Inhibitors and Activators of Purified Human alpha-Glucosidase (AID 2115; active = well fitted curve in either direction with a large enough effect; inconclusive = small, poorly fitted or top-dose-only effect)
Procedure, shortened: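 Purified human enzyme (4 nM) with 4-methylumbelliferyl-alpha-D-glucopyranoside (400 uM), compounds up to 77 uM, in citrate/phosphate buffer pH 5.0 with 0.005% Tween-20. After 20 min at RT, stopped at pH 10; fluorescence ex 365/em 440 nm; AC50 from Hill fits.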
Tags give direction and shape of the fitted curve.

| SMILES | Potency [1] | Potency [2] | activity change, negative = cytotoxicity [3] | activity change, negative = cytotoxicity [4] | Potency [5] | caspase-3 activation [6] | Potency [7] | Potency [8] | Potency [9] | activation [10] | Potency [11] | Potency [12] | Potency [13] | Potency [14] |
| --- | --- | --- | --- | --- | --- | --- | --- | --- | --- | --- | --- | --- | --- | --- |
| C/C=C1\C(=O)C[C@H]2[C@@H]3CCC4=CC(=O)CC[C@]4(C)[C@H]3CC[C@]12C | inconclusive [partial curve] | inconclusive [partial curve] | active: -149% | inconclusive: -35.3% | inconclusive [rising, single point] | inconclusive: 77.4% | inactive | inconclusive [side channel, falling, single point] | active: 2.98 µM | inconclusive: 8.85% | active: 33.5 µM | inconclusive [activator, full curve, poor fit] | inconclusive [cytotoxic, partial curve] | – |
| O=C1Cc2cc(S(=O)(=O)N3CCN(c4ccc(Br)cc4)CC3)ccc2N1 | – | – | – | – | – | – | – | – | – | – | – | – | – | inconclusive [inhibitor, partial curve] |
